The results in this text go back to patent US20220267464A1 (Hoffmann-La Roche, published 2022).

The target of test [1] is T1, human CEACAM5 (carcinoembryonic antigen, CEA) on cells (human, UniProt P06731 35-685).
T1 construct: endogenous on MKN45 gastric adenocarcinoma cells; full-length cDNA stably transfected in the CHO-K1 clones; also called huCEACAM5; MKN45 cells
T1 sequence: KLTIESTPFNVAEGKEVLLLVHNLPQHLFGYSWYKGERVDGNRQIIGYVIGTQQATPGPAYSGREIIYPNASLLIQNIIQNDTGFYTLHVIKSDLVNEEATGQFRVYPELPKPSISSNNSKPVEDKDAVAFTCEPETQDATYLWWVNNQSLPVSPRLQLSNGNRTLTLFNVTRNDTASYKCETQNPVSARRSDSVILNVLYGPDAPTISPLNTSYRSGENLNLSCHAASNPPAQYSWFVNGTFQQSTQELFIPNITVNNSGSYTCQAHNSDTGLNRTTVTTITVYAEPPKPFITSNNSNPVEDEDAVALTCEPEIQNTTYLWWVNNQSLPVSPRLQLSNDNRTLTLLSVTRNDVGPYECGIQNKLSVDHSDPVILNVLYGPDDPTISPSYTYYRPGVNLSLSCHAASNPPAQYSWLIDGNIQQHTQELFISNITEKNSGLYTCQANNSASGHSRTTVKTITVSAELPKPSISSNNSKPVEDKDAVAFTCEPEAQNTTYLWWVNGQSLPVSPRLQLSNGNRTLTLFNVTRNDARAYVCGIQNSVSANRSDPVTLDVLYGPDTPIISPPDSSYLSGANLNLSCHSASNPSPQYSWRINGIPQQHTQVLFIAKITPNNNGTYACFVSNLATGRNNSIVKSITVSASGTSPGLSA
Kind of test: flow cytometry, CHO-k1-huCEACAM5 clone 12.

The target of test [2] is T2, cynomolgus monkey CEACAM5 on CHO-k1-cynoCEACAM5 clone 8 cells (cynomolgus monkey).
T2 construct: whole, on cells
Kind of test: flow cytometry, CHO-k1-cynoCEACAM5 clone 8. More on the design: unit not given beside the values.

The target of test [3] is T1, human CEACAM5 (carcinoembryonic …). Kind of test: flow cytometry, CHO-k1-huCEACAM5 clone 11. More on the design: unit not given beside the values.
Test [4] has the same target. Kind of test: flow cytometry, CHO-k1-huCEACAM5 clone 17. More on the design: unit not given beside the values.
Test [5] has the same target. Kind of test: flow cytometry, CHO-k1-huCEACAM5 clone 13.
Test [6] has the same target. Kind of test: flow cytometry, CHO-k1-huCEACAM5 clone 11.
For test [7] the target is unchanged. Kind of test: cell-based or functional assay. More on the design: AUC of activation curve, Jurkat-hu4-1BB-NFκB-luc2, no CEA+ cells / AUC of activation curve, Jurkat-hu4-1BB-NFκB-luc2 with CHO-k1-cyno CEACAM5 clone 8: unit not given beside the values.
Test [8] deals with T2, cynomolgus monkey CEACAM5 on …. Kind of test: cell-based or functional assay. More on the design: AUC of activation curve, Jurkat-hu4-1BB-NFκB-luc2, no CEA+ cells / AUC of activation curve, Jurkat-hu4-1BB-NFκB-luc2 with CHO-k1-cyno CEACAM5 clone 8: unit not given beside the values.
In test [9] the target is human 4-1BB on Jurkat-hu4-1BB-NFκB-luc2 reporter cells (human, UniProt Q07011 24-255). Kind of test: cell-based or functional assay. More on the design: AUC of activation curve, Jurkat-hu4-1BB-NFκB-luc2, no CEA+ cells / AUC of activation curve, Jurkat-hu4-1BB-NFκB-luc2 with CHO-k1-cyno CEACAM5 clone 8: unit not given beside the values.
The target in test [10] is T1, human CEACAM5 (carcinoembryonic …). Kind of test: flow cytometry, CHO-k1-huCEACAM5 clone 13. More on the design: unit not given beside the values.
Test [11] has the same target. Kind of test: flow cytometry, CHO-k1-huCEACAM5 clone 12. More on the design: unit not given beside the values.
Test [12] shares this target. Kind of test: flow cytometry, CHO-k1-huCEACAM5 clone 17.
The target is the same in test [13]. Kind of test: cell-based or functional assay.

Chain of UniProt Q07011 (Q07011 24-255 limits assumed): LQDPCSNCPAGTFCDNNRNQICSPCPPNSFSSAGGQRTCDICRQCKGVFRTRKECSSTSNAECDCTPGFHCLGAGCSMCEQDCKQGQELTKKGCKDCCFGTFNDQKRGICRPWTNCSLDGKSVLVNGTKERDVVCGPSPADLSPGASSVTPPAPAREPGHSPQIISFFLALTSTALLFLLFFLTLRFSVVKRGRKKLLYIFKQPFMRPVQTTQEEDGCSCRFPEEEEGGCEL

B1: CEA(huMFE23-L28-H24)-4-1BBL (Fc fusion)
chain 1: REGPELSPDDPAGLLDLRQGMFAQLVAQNVLLIDGPLSWYSDPGLAGVSLTGGLSYKEDTKELVVAKAGVYYVFFQLELRRVVAGEGSGSVSLALHLQPLRSAAGAAALALTVDLPPASSEARNSAFGFQGRLLHLSAGQRLGVHLHTEARARHAWQLTQGATVLGLFRVTPEIPAGLGGGGSGGGGSREGPELSPDDPAGLLDLRQGMFAQLVAQNVLLIDGPLSWYSDPGLAGVSLTGGLSYKEDTKELVVAKAGVYYVFFQLELRRVVAGEGSGSVSLALHLQPLRSAAGAAALALTVDLPPASSEARNSAFGFQGRLLHLSAGQRLGVHLHTEARARHAWQLTQGATVLGLFRVTPEIPAGLGGGGSGGGGSRTVAAPSVFIFPPSDRKLKSGTASVVCLLNNFYPREAKVQWKVDNALQSGNSQESVTEQDSKDSTYSLSSTLTLSKADYEKHKVYACEVTHQGLSSPVTKSFNRGE[human IgG1 Fc with changes not spelt out]
chain 2: REGPELSPDDPAGLLDLRQGMFAQLVAQNVLLIDGPLSWYSDPGLAGVSLTGGLSYKEDTKELVVAKAGVYYVFFQLELRRVVAGEGSGSVSLALHLQPLRSAAGAAALALTVDLPPASSEARNSAFGFQGRLLHLSAGQRLGVHLHTEARARHAWQLTQGATVLGLFRVTPEIPAGLGGGGSGGGGSASTKGPSVFPLAPSSKSTSGGTAALGCLVEDYFPEPVTVSWNSGALTSGVHTFPAVLQSSGLYSLSSVVTVPSSSLGTQTYICNVNHKPSNTKVDEKVEPKSC
heavy: QVQLVQSGAEVKKPGASVKVSCKASGFNIKDSYMHWVRQAPGQGLEWMGWIDPENGDTEYAPKFQGRVTMTTDTSISTAYMELSRLRSDDTAVYYCNEGTPTGPYYFDYWGQGTLVTVSSASTKGPSVFPLAPSSKSTSGGTAALGCLVKDYFPEPVTVSWNSGALTSGVHTFPAVLQSSGLYSLSSVVTVPSSSLGTQTYICNVNHKPSNTKVDKKVEPKSCDKTHTCPPCPAPEAAGGPSVFLFPPKPKDTLMISRTPEVTCVVVDVSHEDPEVKFNWYVDGVEVHNAKTKPREEQYNSTYRVVSVLTVLHQDWLNGKEYKCKVSNKALGAPIEKTISKAKGQPREPQVCTLPPSRDELTKNQVSLSCAVKGFYPSDIAVEWESNGQPENNYKTTPPVLDSDGSFFLVSKLTVDKSRWQQGNVFSCSVMHEALHNHYTQKSLSLSP
light: EIQMTQSPSSLSASVGDRVTITCRASSSVPYMHWLQQKPGKAPKLLIYSTSNLASGVPSRFSGSGSGTDFTLTISSVQPEDFATYYCQQRSSYPLTFGGGTKLEIKRTVAAPSVFIFPPSDEQLKSGTASVVCLLNNFYPREAKVQWKVDNALQSGNSQESVTEQDSKDSTYSLSSTLTLSKADYEKHKVYACEVTHQGLSSPVTKSFNRGEC
notes: split trimeric 4-1BBL Fc (kih) P329G LALA with one anti-CEA Fab; also called CEA(MFE23-L28-H24)-4-1BBL
Take B1: the concentration for a half-maximal effect (EC50) in [1] was determined as 4.83 nM; in test [5] it was 6.2 nM; in test [6] it was 1.93 nM; in [12] it was 1.93 nM. The AUC in [2] was determined as 275; in [3], 24100; in test [4], 26000; in [10], 101000; in test [11] it was 74700. Moreover, the “AUC of activation curve, Jurkat-hu4-1BB-NFκB-luc2 with CHO-k1-human CEACAM5 clone 11” value in test [7] stood at 161000. Moreover, the “AUC of activation curve, Jurkat-hu4-1BB-NFκB-luc2 with CHO-k1-human CEACAM5 clone 12” value in test [7] is 163000. Also, the “AUC of activation curve, Jurkat-hu4-1BB-NFκB-luc2 with CHO-k1-cyno CEACAM5 clone 8” value in test [8] is 3600. The “AUC of activation curve, Jurkat-hu4-1BB-NFκB-luc2, no CEA+ cells” value in test [9] turned out to be 2560. Besides, the “EC50, NFκB-luciferase in Jurkat-hu4-1BB-NFκB-luc2 with CHO-k1-human CEACAM5 clone 11” value in test [13] worked out at 0.06 nM. Also, the “EC50, NFκB-luciferase in Jurkat-hu4-1BB-NFκB-luc2 with CHO-k1-human CEACAM5 clone 12” value in [13] was found to be 0.04 nM.

B2: CEA(huMFE23-L28-H28)-4-1BBL (Fc fusion)
chain 1: REGPELSPDDPAGLLDLRQGMFAQLVAQNVLLIDGPLSWYSDPGLAGVSLTGGLSYKEDTKELVVAKAGVYYVFFQLELRRVVAGEGSGSVSLALHLQPLRSAAGAAALALTVDLPPASSEARNSAFGFQGRLLHLSAGQRLGVHLHTEARARHAWQLTQGATVLGLFRVTPEIPAGLGGGGSGGGGSREGPELSPDDPAGLLDLRQGMFAQLVAQNVLLIDGPLSWYSDPGLAGVSLTGGLSYKEDTKELVVAKAGVYYVFFQLELRRVVAGEGSGSVSLALHLQPLRSAAGAAALALTVDLPPASSEARNSAFGFQGRLLHLSAGQRLGVHLHTEARARHAWQLTQGATVLGLFRVTPEIPAGLGGGGSGGGGSRTVAAPSVFIFPPSDRKLKSGTASVVCLLNNFYPREAKVQWKVDNALQSGNSQESVTEQDSKDSTYSLSSTLTLSKADYEKHKVYACEVTHQGLSSPVTKSFNRGE[human IgG1 Fc with changes not spelt out]
chain 2: REGPELSPDDPAGLLDLRQGMFAQLVAQNVLLIDGPLSWYSDPGLAGVSLTGGLSYKEDTKELVVAKAGVYYVFFQLELRRVVAGEGSGSVSLALHLQPLRSAAGAAALALTVDLPPASSEARNSAFGFQGRLLHLSAGQRLGVHLHTEARARHAWQLTQGATVLGLFRVTPEIPAGLGGGGSGGGGSASTKGPSVFPLAPSSKSTSGGTAALGCLVEDYFPEPVTVSWNSGALTSGVHTFPAVLQSSGLYSLSSVVTVPSSSLGTQTYICNVNHKPSNTKVDEKVEPKSC
heavy: QVQLVQSGAEVKKPGASVKVSCKASGFNIKDSYMHWVRQAPGQGLEWMGWIDPENGDTEYAPKFQGRVTMTRDTSISTAYMELSRLRSDDTAVYYCNEGTPTGPYYFDYWGQGTLVTVSSASTKGPSVFPLAPSSKSTSGGTAALGCLVKDYFPEPVTVSWNSGALTSGVHTFPAVLQSSGLYSLSSVVTVPSSSLGTQTYICNVNHKPSNTKVDKKVEPKSCDKTHTCPPCPAPEAAGGPSVFLFPPKPKDTLMISRTPEVTCVVVDVSHEDPEVKFNWYVDGVEVHNAKTKPREEQYNSTYRVVSVLTVLHQDWLNGKEYKCKVSNKALGAPIEKTISKAKGQPREPQVCTLPPSRDELTKNQVSLSCAVKGFYPSDIAVEWESNGQPENNYKTTPPVLDSDGSFFLVSKLTVDKSRWQQGNVFSCSVMHEALHNHYTQKSLSLSP
light: EIQMTQSPSSLSASVGDRVTITCRASSSVPYMHWLQQKPGKAPKLLIYSTSNLASGVPSRFSGSGSGTDFTLTISSVQPEDFATYYCQQRSSYPLTFGGGTKLEIKRTVAAPSVFIFPPSDEQLKSGTASVVCLLNNFYPREAKVQWKVDNALQSGNSQESVTEQDSKDSTYSLSSTLTLSKADYEKHKVYACEVTHQGLSSPVTKSFNRGEC
notes: split trimeric 4-1BBL Fc (kih) P329G LALA with one anti-CEA Fab; also called CEA(MFE23-L28-H28)-4-1BBL
Take B2: the EC50 in test [1] was found to be 8.32 nM; in test [5], 15.4 nM; in test [6] it was 2.98 nM; in test [12], 3.26 nM. Moreover, the AUC in test [2] is 270; in test [3], 21700; in test [4], 23100; in [10], 78500; in test [11], 65900. Also, the “AUC of activation curve, Jurkat-hu4-1BB-NFκB-luc2 with CHO-k1-human CEACAM5 clone 11” value in test [7] is 147000. For the same molecule, the “AUC of activation curve, Jurkat-hu4-1BB-NFκB-luc2 with CHO-k1-human CEACAM5 clone 12” value in test [7] came out at 146000. Also, the “AUC of activation curve, Jurkat-hu4-1BB-NFκB-luc2 with CHO-k1-cyno CEACAM5 clone 8” value in test [8] was found to be 3420. For the same molecule, in test [9], the “AUC of activation curve, Jurkat-hu4-1BB-NFκB-luc2, no CEA+ cells” value was 2530. In addition, the “EC50, NFκB-luciferase in Jurkat-hu4-1BB-NFκB-luc2 with CHO-k1-human CEACAM5 clone 11” value in test [13] was determined as 0.1 nM. For the same molecule, the “EC50, NFκB-luciferase in Jurkat-hu4-1BB-NFκB-luc2 with CHO-k1-human CEACAM5 clone 12” value in [13] was found to be 0.07 nM.
